In the supplement of paper PMC8728848:
Some of the results follow.

Assays:
Test in all cases: glycan array binding signal (z-score within array); higher = stronger binding
Conditions in all cases: glycan notation: IUPAC condensed, linker removed; mutation: R74S
Fuc(a1-2)Gal = target: Fuc(a1-2)Gal
Procedure, shortened: (§1)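 Arrays were curated from the Consortium for Functional Glycomics database, 3228 in total, and kept only where the protein sequence was available. Binding is expressed as a within-array Z-score. This score was averaged across arrays of the same protein sequence at different concentrations or buffers and across linkers, and negative values can be read as non-binding.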

Fuc(a1-2)Gal(b1-3)GalNAc = target: Fuc(a1-2)Gal(b1-3)GalNAc
Procedure, shortened: as §1

[1] = target: Fuc(a1-2)Gal(b1-3)GalNAc(a1-3)[Fuc(a1-2)]Gal(b1-4)Glc
Procedure, shortened: as §1

[2] = target: Fuc(a1-2)Gal(b1-3)GalNAc(a1-3)[Fuc(a1-2)]Gal(b1-4)GlcNAc
Procedure, shortened: as §1

[3] = target: Fuc(a1-2)Gal(b1-3)GalNAc(b1-3)Gal
Procedure, shortened: as §1

[4] = target: Fuc(a1-2)Gal(b1-3)GalNAc(b1-3)Gal(a1-4)Gal(b1-4)Glc
Procedure, shortened: as §1

[5] = target: Fuc(a1-2)Gal(b1-3)GalNAc(b1-4)[Neu5Ac(a2-3)]Gal(b1-4)Glc
Procedure, shortened: as §1

Fuc(a1-2)Gal(b1-3)GlcNAc = target: Fuc(a1-2)Gal(b1-3)GlcNAc
Procedure, shortened: as §1

[6] = target: Fuc(a1-2)Gal(b1-3)GlcNAc(b1-2)Man(a1-3)[Fuc(a1-2)Gal(b1-3)GlcNAc(b1-2)Man(a1-6)]Man(b1-4)GlcNAc(b1-4)GlcNAc
Procedure, shortened: as §1

[7] = target: Fuc(a1-2)Gal(b1-3)GlcNAc(b1-2)Man(a1-3)[Fuc(a1-2)Gal(b1-3)GlcNAc(b1-2)Man(a1-6)]Man(b1-4)GlcNAc(b1-4)[Fuc(a1-6)]GlcNAc
Procedure, shortened: as §1

[8] = target: Fuc(a1-2)Gal(b1-3)GlcNAc(b1-3)Gal(b1-4)Glc
Procedure, shortened: as §1

[9] = target: Fuc(a1-2)Gal(b1-3)GlcNAc(b1-3)GalNAc
Procedure, shortened: as §1

[10] = target: Fuc(a1-2)Gal(b1-3)GlcNAc(b1-3)[Fuc(a1-2)Gal(b1-3)GlcNAc(b1-6)]GalNAc
Procedure, shortened: as §1

[11] = target: Fuc(a1-2)Gal(b1-3)GlcNAc(b1-3)[Gal(b1-4)GlcNAc(b1-6)]Gal(b1-4)Glc
Procedure, shortened: as §1

[12] = target: Fuc(a1-2)Gal(b1-3)GlcNAc(b1-3)[Neu5Ac(a2-6)Gal(b1-4)GlcNAc(b1-6)]Gal(b1-4)Glc
Procedure, shortened: as §1

[13] = target: Fuc(a1-2)Gal(b1-3)GlcNAc6S
Procedure, shortened: as §1

[14] = target: Fuc(a1-2)Gal(b1-3)[Fuc(a1-4)]GlcNAc
Procedure, shortened: as §1

[15] = target: Fuc(a1-2)Gal(b1-3)[Fuc(a1-4)]GlcNAc(b1-2)Man(a1-3)[Fuc(a1-2)Gal(b1-3)[Fuc(a1-4)]GlcNAc(b1-2)Man(a1-3)]Man(b1-4)GlcNAc(b1-4)GlcNAc
Procedure, shortened: as §1

[16] = target: Fuc(a1-2)Gal(b1-3)[Fuc(a1-4)]GlcNAc(b1-2)Man(a1-3)[Fuc(a1-2)Gal(b1-3)[Fuc(a1-4)]GlcNAc(b1-2)Man(a1-6)]Man(b1-4)GlcNAc(b1-4)[Fuc(a1-6)]GlcNAc(b1-4)[Fuc(a1-6)]GlcNAc
Procedure, shortened: as §1

[17] = target: Fuc(a1-2)Gal(b1-3)[Fuc(a1-4)]GlcNAc(b1-3)[Fuc(a1-3)[Gal(b1-4)]GlcNAc(b1-6)]Gal(b1-4)Glc
Procedure, shortened: as §1

[18] = target: Fuc(a1-2)Gal(b1-3)[Fuc(a1-4)]GlcNAc(b1-3)[Gal(b1-4)GlcNAc(b1-6)]Gal(b1-4)Glc
Procedure, shortened: as §1

[19] = target: Fuc(a1-2)Gal(b1-4)Fuc(a1-3)]GlcNAc(b1-2)Man(a1-3)[Fuc(a1-2)Gal(b1-4)[Fuc(a1-3)]GlcNAc(b1-2)Man(a1-6)]Man(b1-4)GlcNAc(b1-4)GlcNAc
Procedure, shortened: as §1

Fuc(a1-2)Gal(b1-4)Glc = target: Fuc(a1-2)Gal(b1-4)Glc
Procedure, shortened: as §1

Fuc(a1-2)Gal(b1-4)Glc6S = target: Fuc(a1-2)Gal(b1-4)Glc6S
Procedure, shortened: as §1

Fuc(a1-2)Gal(b1-4)GlcNAc = target: Fuc(a1-2)Gal(b1-4)GlcNAc
Procedure, shortened: as §1

[20] = target: Fuc(a1-2)Gal(b1-4)GlcNAc(b1-2)Man
Procedure, shortened: as §1

[21] = target: Fuc(a1-2)Gal(b1-4)GlcNAc(b1-2)Man(a1-3)[Fuc(a1-2)Gal(b1-4)GlcNAc(b1-2)Man(a1-6)]Man(b1-4)GlcNAc(b1-4)GlcNAc
Procedure, shortened: as §1

[22] = target: Fuc(a1-2)Gal(b1-4)GlcNAc(b1-2)Man(a1-3)[Fuc(a1-2)Gal(b1-4)GlcNAc(b1-2)Man(a1-6)]Man(b1-4)GlcNAc(b1-4)[Fuc(a1-6)]GlcNAc
Procedure, shortened: as §1

[23] = target: Fuc(a1-2)Gal(b1-4)GlcNAc(b1-2)[Fuc(a1-2)Gal(b1-4)GlcNAc(b1-4)]Man(a1-3)[Fuc(a1-2)Gal(b1-4)GlcNAc(b1-2)Man(a1-6)]Man(b1-4)GlcNAc(b1-4)GlcNAc
Procedure, shortened: as §1

[24] = target: Fuc(a1-2)Gal(b1-4)GlcNAc(b1-3)Gal(b1-4)GlcNAc
Procedure, shortened: as §1

B1: Gal 7 (Homo sapiens) (protein)
chain: MSNVPHKSSLPEGIRPGTVLRIRGLVPPNASRFHVNLLCGEEGGSDAALHFNPRLDTSEVVFNSKEGGSWGREESGPGVPFGRGQPFEVLIIASDDGFKAVVGDAQYHHFRHRLPLARVRLVEVGGDVQLDSVRIF
B1 was tested, and the “glycan array binding signal (z-score)” value (Fuc(a1-2)Gal) was 0.285, the “glycan array binding signal (z-score)” value (Fuc(a1-2)Gal(b1-3)GalNAc) was -0.08 and the “glycan array binding signal (z-score)” value [1] was -0.294. The “glycan array binding signal (z-score)” value [2] was -0.115, the “glycan array binding signal (z-score)” value [3] was -0.319 and the “glycan array binding signal (z-score)” value [4] was -0.503. For the same binder, the “glycan array binding signal (z-score)” value [5] was -0.204, the “glycan array binding signal (z-score)” value (Fuc(a1-2)Gal(b1-3)GlcNAc) was -0.384 and the “glycan array binding signal (z-score)” value [6] was 1.48. For the same binder, the “glycan array binding signal (z-score)” value [7] was -0.057, the “glycan array binding signal (z-score)” value [8] was -0.429 and the “glycan array binding signal (z-score)” value [9] was -0.157. The “glycan array binding signal (z-score)” value [10] was 0.182, the “glycan array binding signal (z-score)” value [11] was -0.088 and the “glycan array binding signal (z-score)” value [12] was 0.022. The “glycan array binding signal (z-score)” value [13] was 0.152, the “glycan array binding signal (z-score)” value [14] was 0.245 and the “glycan array binding signal (z-score)” value [15] was 1.84. For the same binder, the “glycan array binding signal (z-score)” value [16] was 0.897, the “glycan array binding signal (z-score)” value [17] was -0.215 and the “glycan array binding signal (z-score)” value [18] was 0.211. The “glycan array binding signal (z-score)” value [19] was 2.8, the “glycan array binding signal (z-score)” value (Fuc(a1-2)Gal(b1-4)Glc) was -0.305 and the “glycan array binding signal (z-score)” value (Fuc(a1-2)Gal(b1-4)Glc6S) was -0.447. For the same binder, the “glycan array binding signal (z-score)” value (Fuc(a1-2)Gal(b1-4)GlcNAc) was -0.214, the “glycan array binding signal (z-score)” value [20] was 0.542 and the “glycan array binding signal (z-score)” value [21] was 0.098. The “glycan array binding signal (z-score)” value [22] was 1.07, the “glycan array binding signal (z-score)” value [23] was 0.518 and the “glycan array binding signal (z-score)” value [24] was -0.254.
